We go through 14 molecules from article PMC12136788.

T1: UNK ZnF1-3 (human, UniProt Q9C0B0 31-174)
T1 sequence: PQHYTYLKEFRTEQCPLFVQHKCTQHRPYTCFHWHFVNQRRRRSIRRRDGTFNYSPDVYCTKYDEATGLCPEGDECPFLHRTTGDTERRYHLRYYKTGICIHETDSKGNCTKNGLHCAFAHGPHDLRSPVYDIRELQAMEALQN

B1: chr7:75932113:75932114:+_ENSG00000106211_ENST00000248553|hu_hu|hu_hu_hu_mus_False|48_78 (ssRNA)
RNA: GGGAGUUCUACAGUCCGACGAUCCUGCGACCACUCAUCGGGCAACCGGGGCACCCCGAAGGCCUGGUCGAAGAGGCGGCUGUGUGCGUACCAGUCGUCCCGGAAUGGUUCCCAGCUCGGGCUCCGCAGCAGCGAGAAGGGCACCAACAGAGGAUUGAGCAUCA
B2: chr16:94690093:94690094:+_ENSMUSG00000040785_ENSMUST00000117648|mus_hu|mus_mus_mus_hu_True|1_78 (ssRNA)
RNA: GGGAGUUCUACAGUCCGACGAUCGGGCUGGGAUGACGGACACACAGCCUCGAUUCCGGUAAAAAAAAGUCUUAGUCGAUACUAAUUAAAAAGUGUUAAUGAUUUUUGAAAAUCAGAUUACAUCUAUAAAAGAUGAAAGCACUUCAACAGAGGAUUGAGCAUCA
B3: chr1:225611761:225611762:-_ENSG00000143815_ENST00000272163|hu_mus|hu_hu_hu_mus_True|1_88 (ssRNA)
RNA: GGGAGUUCUACAGUCCGACGAUCCCAGGCCAUCGGCCUCUGACCACUUCACCAUCGACAAACUUCCUACUUGGCAUUUUCUAAAAUUAGUCUGGCCGCGCUCCGGCGGGAACUCCAGCCACUCCAGGACAGUCACCCGCACAGCAACAGAGGAUUGAGCAUCA
B4: chr9:107755404:107755405:-_ENSMUSG00000032582_ENSMUST00000035201|mus_hu|FALSE|FALSE (ssRNA)
RNA: GGGAGUUCUACAGUCCGACGAUCCUCUAUAAUCCAUAGAAGUACCAUCUCCACCCCUAUAGUCCAUAGGUGGUCCUUCUCUAUCCCGAAAAUCCCCAGAAUGUAUGUCCCUACCCCUGAAGUCCAACUGUGAUGAAUCUCUGCCAACAGAGGAUUGAGCAUCA
B5: chr10:33190432:33190433:-_ENSG00000150093_ENST00000302278|hu_mus|hu_hu_hu_mus_True|8_48 (ssRNA)
RNA: GGGAGUUCUACAGUCCGACGAUCUACAUUUUCCAAACCUGCAUGUGAAUAAAACCCUGGCCACAGAGCCCCAAAACUACCCUACUGUGACUAUGGAGCUGCUGCUGUGAGCUUGGUGUUGCAAAAUUUUGCACGGGAGGAUUCCAACAGAGGAUUGAGCAUCA
B6: 32149854_32149974_91_5pUTR_ENSMUSG00000021893_ENSMUST00000022451|mouse|control|control (ssRNA)
RNA: GGGAGUUCUACAGUCCGACGAUCGGUGGAGUGGCAAAGUUUACUUUCGAGGGCGGCGGAAGAGAUGACGGAGCCCCACUACCUCAGACCCGCCCGGAGGACUGCGAGCUCCGAGCAGCCCGGGCUCGGAGCCCUCGCGGCCGCCAACAGAGGAUUGAGCAUCA
B7: chr1:60041781:60041782:+_ENSMUSG00000041040_ENSMUST00000036540|mus_hu|mus_mus_mus_hu_False|48_108 (ssRNA)
RNA: GGGAGUUCUACAGUCCGACGAUCAAGAGGAGUGAAUUAAAGUAAAUGCAGUAGUGGCAAAUUUUCUUUUAUUUUCCUUCACAAAAGAAAACCUCAGUAACCCAGUCCUAGUCUUGGACAUAGUGAAAGCUAUAAAUUCUGACUCAACAGAGGAUUGAGCAUCA
B8: chr9:110092072:110092073:+_ENSG00000119318_ENST00000416373|hu_hu|motif|central (ssRNA)
RNA: GGGAGUUCUACAGUCCGACGAUCCUGUAUUUAUCCCUGCCCUGUAUCCUAGAUCCCUCCCUCCCCACCCCCAACAAUCGGCGGCCUUAUACCAAGUAUUGUGGAUAUGAGCCCAAGUCAUCCCAGACAAUCCAGUGAACAAGUCAACAGAGGAUUGAGCAUCA
B9: 165728802_165738018_155_5pUTR_ENSG00000143183_ENST00000464650|human|control|control (ssRNA)
RNA: GGGAGUUCUACAGUCCGACGAUCGUUUCCUUCUUCUUUUCCAAUUUUUUACUCUGUUUUUCCACUUCUGCCUUCAGUCUCUUGUACUUGUCUGUCCUGUAAACCAGGACCCAGGUUAUGCCUUCGUCUCUGCACUCUCACCCGCAACAGAGGAUUGAGCAUCA
B10: chr11:77412602:77412603:-_ENSG00000048649_ENST00000308488|hu_mus|FALSE|FALSE (ssRNA)
RNA: GGGAGUUCUACAGUCCGACGAUCCUCACUCUUACUUCUGGGGGCCUUCUCUUCAACUUUCGUACUGCAGGGUUCUGUGGCAGACAAAGUGGGUUUUAAAGAGAGAUCCGUGGCUUUCUCAGAAGGUUCGAGAGGCAUGUCCAUCAACAGAGGAUUGAGCAUCA
B11: 85482702_85482822_4022_3pUTR_ENSMUSG00000042523_ENSMUST00000123491|mouse|control|control (ssRNA)
RNA: GGGAGUUCUACAGUCCGACGAUCUGUAAUACAAAUAUUAAGCUUUAGAGACAGAACAAAAUCUAUCAUAAAAGCUAGAUUUUGUUGACAGUGACAGAGGUAGAUUAACUGGUCAACCAUUGUCCUAACAUGAGCAGGGGACAACAACAGAGGAUUGAGCAUCA
B12: 120611786_120616068_578_CDS_ENSMUSG00000090100_ENSMUST00000028740|mouse|control|control (ssRNA)
RNA: GGGAGUUCUACAGUCCGACGAUCACGAAGGGUAGUGCUAAUAGUGAAUGUGCCCCGGGAUUGGCUACGGCGGAGAUCUGCCAGAUUCCGUCCCUGCAAUUGCAUGACCACGUAGUUGAAACGAUCAUUUCUCCCACAGCCAAUCAACAGAGGAUUGAGCAUCA
B13: 29965161_29965281_2354_3pUTR_ENSG00000104660_ENST00000321250|human|control|control (ssRNA)
RNA: GGGAGUUCUACAGUCCGACGAUCCCUGCAAAAAAAAGUCCAGUAGAUCACAAGCACAAAGAGUUCCCAACUGUCUCACCAGCUCUCUAACUCAUGUGUACCUGCACCUUCCUCUUGAAAUCUGAACAUUAUAAUACCACAAGCCAACAGAGGAUUGAGCAUCA
B14: chr4:140556289:140556290:+_ENSMUSG00000036622_ENSMUST00000037055|mus_mus|mus_mus_mus_hu_False|8_8 (ssRNA)
RNA: GGGAGUUCUACAGUCCGACGAUCGAUGGAGCUCACCAGGCCCCCUUUUGCCGUGCAGAACCCUGUGCGGGUCACCACUGCCAGGACGUGCGGUCCCACAUAGGCCCGGGCCUGCAAGAUGAGGGUCCCACAGAAGAGUGUGUGCAACAGAGGAUUGAGCAUCA

This is one part of the list.

The target of the test is T1, UNK ZnF1-3. The test is described as follows: nsRBNS (natural sequence RNA bind-n-seq); RBNS binding buffer (assumed for nsRBNS): 25 mM Tris pH 7.5, 150 mM KCl, 3 mM MgCl2, 0.01% Triton X-100, 500 ug/ml BSA, 20 U/ml SUPERase-In, 4 C; UNK is unkempt and MSI1 is Musashi-1; names of the RNAs are library labels; protein concentration not given here; high values mean tight binding.
B1 came in with a binding signal of 0.54 enrichment R.

B2 gave a binding signal of 1.23 enrichment R.

Molecule B3 had a binding signal of 1.13 enrichment R.

Take B4: the binding signal turned out to be 0.997 enrichment R.

With B5, the binding signal stood at 1.06 enrichment R.

B6 came in with a binding signal of 1.34 enrichment R.

In turn, B7 came in with a binding signal of 0.789 enrichment R.

In turn, B8 had a binding signal of 2.72 enrichment R.

B9 came in with a binding signal of 0.414 enrichment R.

As for B10, the binding signal amounted to 1.18 enrichment R.

Regarding B11, the binding signal turned out to be 1.15 enrichment R.

B12: the binding signal turned out to be 1.34 enrichment R.

B13 gave a binding signal of 1.7 enrichment R.

B14 showed a binding signal of 1.2 enrichment R.
